# Read counts are not given, so values of variants with three or more changes are uncertain.
# B1: LINE1-full (parent)
# chain: UACGUAGGUGGUUUUCCCCUGAUAGUGCUAAGGGGGCCUGGAAGUUUGGACUGGGCAGAGCUCAACACAGCGUGGCAAAGUGGCUGUGGCUAGACUGCCUCUCUGGAUUCCUCGUCACUCAGCAGGGCAUCUCUGAGAGAAAUGCC
# Variants of: B1
# Assay: self-cleavage, relative activity (ratio to wild type); higher = more cleavage; in vitro, sequencing; the parent is a self-cleaving ribozyme
row,Variant,self-cleavage
1,U47C C51G U112A,1.88
2,U47C C61U U96C,0.03
3,U47C C63A A124G A142G,0.04
4,U47C C66U A94G U134C,0.12
5,U47C C66U U87A A107U,0.02
6,U47C C68U A69G C101U A140U,0.15
7,U47C C76A A121G,1.54
8,U47C C90U A107G,0.08
9,U47C G54U A117G U130C,1.53
10,U47C G55A A141G,0.59
11,U47C G55A G122C,1.11
12,U47C G55A U134C,1.15
13,U47C G70A U112G,0.15
14,U47C G88U U96C A140G,0.28
15,U47C G93A U130C,0.05
16,U47C G114A A142G,1.4
17,U47C U52C A141U,2.13
18,U47C U52C U73A A78G U100A,0.59
19,U47C U52C U132C,2.67
20,U47C U62A A94U A107G A136G,0
21,U47C U62A C90U G105A,0.01

row,Variant,self-cleavage
1,U47C U62C G127U A141G,0.04
2,U47C U73A G125A,1.78
3,U47C U73A U115C,2.34
4,U47C U73C A138G,2.06
5,U47C U81C A124G C133U A136G,1.31
6,U47C U96A A136G,0.09
7,U47C U96A A141G,0.19
8,U47C U96A A142G,0.15
9,U47C U96A U112C,0.04
10,U47C U100C U134A,1.84
11,U47C U102C A107G,1.31
12,U47C U104A U115C,0.25
13,U47C U108A C131U,1.73
14,U47C U108C U134C,2.55
15,U47C U109A A117C,1.22
16,U47C U112C A141G,1.19
17,U47C U119C A121G,0.97
18,U47C U132C A140G,0.68
19,U47G A57G A69U A107G,0
20,U47G A67G A124U A142G,0.28
21,U47G A69U U104G,0.37

row,Variant,self-cleavage
1,U47G A77U U100C C131A,1.58
2,U47G A79G A142G,0.9
3,U47G G75A C118A,0.96
4,U47G U62A U81C,0
5,U47G U85A G137A,0.09
6,U47G U85C U143C,0.29
7,U47G U102A G105A,0.22
8,G48A A57U A94G G135U,0.03
9,G48A A59G U112C U115C,0.08
10,G48A A59U U91A A129G,0.28
11,G48A A77G A140G,1.34
12,G48A A77U U108C,1.05
13,G48A A78G A124G,0.74
14,G48A A78U U85C U108C,0.18
15,G48A A79U U85C,0.09
16,G48A A129U C145U,1
17,G48A C51A A79G U85C,0.03
18,G48A G135U U143C,0.33
19,G48A U52A U96C,0.1
20,G48A U87G U96A A141G,0.05
21,G48A U102C U108C,1.12

row,Variant,self-cleavage
1,G48C A57G A65G U143C,0
2,G48U A57U U109C,0.11
3,G48U A77U U96A A138G,0
4,G48U C51A U81C A129G,0.94
5,G48U G60U A65G U100C C110U,0.01
6,G48U U100C U119G,2.44
7,G48U U134C A141G,1.37
8,G49A A50G A64G A79G,0.26
9,G49A A57G A69G U115C,0.18
10,G49A G82A U96C A141G,0.07
11,G49A U81C U87C,0.07
12,G49A U91C A140U,0.44
13,G49A U96C U104C A136U,0.17
14,G49A U102C C111U A117G A121U,1.1
15,G49A U104G U119C U130C,1.38
16,G49C A67G A77G C111A A141G,0.78
17,G49C A78G U91C,0.38
18,G49C U119C U143C,0.8
19,G49U A59G U62C U73C U87C,0
20,G49U A79G U119A U134C,1.25
21,G49U A79U G93U,0.04

# From the RNAGym collection of RNA variant scans (doi:10.7554/elife.90254)
